Data taken from PubChem BioAssay AID624418 (National Center for Advancing Translational Sciences (NCATS), 2012).
Values joined by “and” are separate entries in the source; they are usually repeats but may differ in a detail not shown here. Identical values can stand only once. Out of some 410,000 compounds screened, about 530 (0.13%) were called active. Inconclusive results, whose numbers are uncertain, are shown with a selection of clear calls. Calls follow the shape of the dose curve; as a rule, active = well fitted inhibition curve with a large enough effect; inconclusive = small, poorly fitted or top-dose-only effect, or another doubt; inactive = no such curve, though single readings can be large or run the other way. Potencies beside an inconclusive call are fits to weak or partial responses and may not hold up.

Assay: qHTS of GLP-1 Receptor Inverse Agonists: Cytotox Screen
Conditions: HEK293 cAMP-luciferase reporter cells, luminescence, 24 h; activity change, negative = inhibition: at 38.3 µM (top of the series) unless noted
Procedure, shortened: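 Seeding density was 200 cells/uL; after overnight-length (12 h) culture, 23 nL compounds went on for 24 h at 37 °C. Readout used a luciferase detection reagent, luminescence taken after 12 min at room temperature.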
% is scaled to controls: 0 for no effect and ±100 for the full control effect; potency is read from the fitted curve at half-maximal effect.

Row | SMILES | activity change, negative = inhibition | Potency
1 | CCOC(=O)CN(C(=O)CSc1nnc2c(n1)[nH]c1ccccc12)c1ccccc1 | inactive: -19.3% | 
2 | Cc1ccc(C[n+]2cccc(-c3ccccc3)c2)c(C)c1 |  | inconclusive: 5.01 µM [inhibitor, partial curve, poor fit]
3 | O=[N+]([O-])/C=C/c1cn(Cc2ccccc2)c2ccccc12 |  | inconclusive: 22.4 µM [inhibitor, single point]
4 | CNC(=O)c1c(NC(=O)c2ccc(S(=O)(=O)N3CCCCC3)cc2)sc2c1CCN(C(C)C)C2 |  | inconclusive: 8.91 µM [inhibitor, partial curve, poor fit]
5 | COc1cccc2c1C(=O)c1c(O)c3c(c(O)c1C2=O)CC(O)(C(C)=O)CC3OC1CC(O)C(O)C(C)O1 (stereo not drawn) |  | inconclusive: 10 µM [inhibitor, single point]
6 | CC(C)(C)c1cc(NC(=O)CCl)n(-c2ccccc2)n1 |  | inconclusive: 31.6 µM [inhibitor, single point]
7 | Cc1cccc(-c2nnc(SCC(=O)N3c4ccccc4CCc4ccccc43)n2C)c1 |  | inconclusive: 8.91 µM [inhibitor, partial curve]
8 | CCSc1nc(-c2ccc(OC)cc2)nc2c1Cc1c(CO)cnc(C)c1O2 | inactive: 9.04% | 
9 | CCOC(=O)c1c(C)n(-c2ccc(C)cc2)c2ccc(OCC(O)CNCCCO)cc12 (stereo not drawn) |  | inconclusive: 22.4 µM [inhibitor, single point]
10 | c1ccc(CCn2nnnc2C(c2cccnc2)N2CCN(c3nc4ccccc4s3)CC2)cc1 (stereo not drawn) |  | inconclusive: 14.1 µM [inhibitor, single point]
11 | COc1ccc(-c2cc(C(F)F)n3ncc(C(=O)NCC4CCCO4)c3n2)cc1 (stereo not drawn) | inactive: 178% | 
12 | Cc1ccccc1S(=O)(=O)Cc1ccc(C(=O)N2CCN(c3cccc(C)c3C)CC2)o1 |  | inconclusive: 8.91 µM [inhibitor, partial curve]
13 | COc1cccc2cc(-c3nc4sc5c(c4c(=O)[nH]3)CCC(C(C)(C)C)C5)c(=O)oc12 (stereo not drawn) | inactive: 3.37% | 
14 | Cc1cc2c(cc1S(=O)(=O)NCc1ccc(F)cc1)OCCN2C | inactive: 12% | 
15 | CC1=C(C(=O)N(C)C)CC(CC(=O)NC(c2ccccc2)c2ccccc2)C(=O)N1Cc1ccccc1 (stereo not drawn) | inactive: -4.26% | 
16 | COc1ccc(S(=O)(=O)N(CC(=O)NC(C)c2ccccc2)c2ccc(C)cc2)cc1OC (stereo not drawn) |  | inconclusive: 28.2 µM [inhibitor, single point]
17 | Cc1ccc(Cl)cc1NC1=C/C(=N\S(=O)(=O)c2cccs2)c2ccccc2C1=O |  | inconclusive: 6.31 µM [inhibitor, partial curve] and inconclusive: 794 nM [inhibitor, full curve, poor fit]
18 | Cc1cc2c(C)cc(=O)[nH]c2cc1NC(=O)CCl |  | inconclusive: 7.94 µM [inhibitor, partial curve, poor fit]
19 | COCCCNC(=S)N/N=C/c1ccc(OC)cc1 |  | inconclusive: 12.6 µM [inhibitor, single point]
20 | O=C(Nc1nc(-c2ccccn2)cs1)C1CC1 | inactive: -18.4% | 
21 | Cc1cc(N(CCO)CCO)ccc1N=Nc1cc(F)ccc1F | inactive: -3.78% [at 0.307 µM] | 

Row | SMILES | activity change, negative = inhibition | Potency
22 | C[C@H](CO)N1C[C@H](C)[C@@H](CN(C)Cc2ccccc2)Oc2c(NC(=O)Cc3ccccc3)cccc2C1=O |  | inconclusive: 31.6 µM [inhibitor, partial curve, poor fit]
23 | O=C(CSc1nc(O)c(-c2ccccc2)c(=O)[nH]1)N1CCOCC1 | inactive: 7.03% [at 0.307 µM] | 
24 | C=CC(=O)Nc1cccc(Nc2nc(N[C@H]3CC[C@H](N(C)C)CC3)nc3c2ncn3C(C)C)c1 |  | inconclusive: 0.891 µM [inhibitor, full curve, poor fit]
25 | CNc1ccc(C(=O)N2CCN(S(=O)(=O)c3ccc4c(c3)OCCCO4)CC2)cc1[N+](=O)[O-] |  | inconclusive: 2.82 µM [inhibitor, full curve, poor fit]
26 | CCC(=NNC(=O)c1ccc2c(c1)nc(C)n2CC)c1cc(F)ccc1O |  | inconclusive: 0.891 µM [inhibitor, full curve, poor fit]
27 | CCS(=O)(=O)N1CCC(NC(=O)c2cc(OC)cc(OC)c2)CC1 |  | inconclusive: 28.2 µM [inhibitor, single point]
28 | COc1ccc(N(C(=O)c2ccco2)C(C(=O)NC2CCCC2)c2ccccc2)cc1 (stereo not drawn) |  | inconclusive: 28.2 µM [inhibitor, single point]
29 | COc1cc(C2Nc3ccc4ncccc4c3C3=C2C(=O)CCC3)cc(OC)c1O (stereo not drawn) |  | inconclusive: 3.16 µM [inhibitor, partial curve, poor fit]
30 | COc1cccc(S(=O)(=O)NCc2ccc(C(=O)NCc3ccccn3)cc2)c1 |  | inconclusive: 28.2 µM [inhibitor, single point]
31 | CN(c1ccccc1)S(=O)(=O)c1ccc(C(=O)Nc2nnc(C3CC3)s2)cc1 | inactive: -0.938% | 
32 | O=C1[C@@H]2Cc3c([nH]c4ccccc34)C(c3cccc(Br)c3)N2C(=O)CN1C1CCN(Cc2ccccc2)CC1 (stereo partly drawn) |  | inconclusive: 14.1 µM [inhibitor, single point]
33 | O=C(Cc1sc(Nc2ccccc2)nc1-c1ccccc1)NCc1ccccc1 |  | inconclusive: 11.2 µM [inhibitor, single point]
34 | COc1cc(/C=C2/C(=N)N3C=CSC3=NC2=O)ccc1OCCCOc1c(C)cccc1C | inactive: 1.83% | 
35 | O=C(NC(=S)Nc1ccc(Oc2ccc(Cl)cc2)cc1)c1ccccc1 |  | inconclusive: 20 µM [inhibitor, single point]
36 | CN1CCN(C(=O)CCCN2C(=O)/C(=C/c3ccc(Cl)cc3)SC2=S)CC1 |  | inconclusive: 12.6 µM [inhibitor, single point]
37 | CN(C)c1ccc(CNC(=O)C2(C)Cc3c(-c4cccc(C(F)(F)F)c4)ccnc3O2)cc1 (stereo not drawn) |  | inconclusive: 11.2 µM [inhibitor, partial curve, poor fit]
38 | Cc1c(CCOC(=O)c2ccc(Cl)cc2Cl)sc[n+]1CC(=O)c1ccccc1 |  | inconclusive: 12.6 µM [inhibitor, single point]
39 | Cc1c(C(=O)N/N=C/c2ccccc2)[nH]c2c([N+](=O)[O-])cccc12 |  | inconclusive: 11.2 µM [inhibitor, partial curve, poor fit]
40 | Cc1cccc(-c2nc(SCc3cc(=O)c4c(C)cc(C)cc4[nH]3)n[nH]2)c1 |  | inconclusive: 31.6 µM [inhibitor, single point]
41 | Clc1ccc(C2=Nn3c(nnc3-c3n[nH]c4c3CCC4)SC2)cc1Cl |  | inconclusive: 28.2 µM [inhibitor, single point]
42 | CN1CCN(c2ccc(NC(=O)c3cccc(OCc4ccccc4)c3)cc2)CC1 |  | inconclusive: 28.2 µM [inhibitor, single point]

Row | SMILES | activity change, negative = inhibition | Potency
43 | Cc1cccc(C(=O)N(C(=O)c2cccc(C)c2)N(C)C)c1 | inactive: 5.4% | 
44 | c1ccc(CSC2=NNC(c3ccccn3)S2)cc1 (stereo not drawn) |  | inconclusive: 0.501 µM [inhibitor, full curve, poor fit]
45 | C=CCN(CC=C)C(=S)NC(=O)Cc1cccc2ccccc12 |  | inconclusive: 0.891 µM [inhibitor, full curve, poor fit]
46 | CCCNC(=O)c1ccc2c(c1)N=C(CCC)c1ccccc1S2 |  | inconclusive: 1.78 µM [inhibitor, full curve, poor fit]
47 | COc1ccc(-c2nn(-c3ccccc3)cc2C(=O)N(C)CC(=O)Nc2cccc(F)c2)cc1 |  | inconclusive: 31.6 µM [inhibitor, single point]
48 | O=C(CNS(=O)(=O)c1ccccc1)NCC(=O)OCc1ccc(Cl)cc1 |  | inconclusive: 1 µM [inhibitor, full curve, poor fit]
49 | CCCn1nnc(NC(=S)NC(=O)c2cccs2)n1 |  | inconclusive: 28.2 µM [inhibitor, single point]
50 | CN1CCN(c2ccc(NC(=O)c3ccc(-c4ccccc4F)o3)cc2)CC1 |  | inconclusive: 28.2 µM [inhibitor, single point]
51 | CC(C)NC(=S)N/N=C/c1ccc(N2CCOCC2)cc1 |  | inconclusive: 10 µM [inhibitor, partial curve]
52 | Cn1c(=O)n(CCOc2ccccc2Cl)c2ccccc21 | inactive: -10.7% | 
53 | CCOC(=O)C1=C(COC(=O)CCOc2ccc(OCC)cc2)NC(=O)NC1C (stereo not drawn) | inactive: 1.73% | 
54 | N[C@@H](Cc1ccccc1)C(=O)N1CCC(C(=O)NCC(=O)Nc2ccc(F)cc2)CC1 |  | inconclusive: 7.08 µM [inhibitor, partial curve, poor fit]
55 | CC1(c2ccc(O)cc2)NC(=O)N(c2ccccc2)N1 (stereo not drawn) | inactive: -8.96% | 
56 | CS(=O)(=O)N(CC(O)Cn1c2ccccc2c2ccccc21)c1cccc2ccccc12 (stereo not drawn) |  | inconclusive: 28.2 µM [inhibitor, single point]
57 | Cc1ccc(C)c(N2CN(Cc3ccco3)CNC2=S)c1 |  | inconclusive: 28.2 µM [inhibitor, single point]
58 | C=C(C)CNC(=S)N/N=C\c1ccc2c(c1)OCO2 |  | inconclusive: 5.62 µM [inhibitor, partial curve]
59 | Cc1cc(C)cc(NS(=O)(=O)c2ccc3c(c2)c(=O)n(C)c(=O)n3C)c1 |  | inconclusive: 1.41 µM [inhibitor, full curve, poor fit]
60 | CCN(CC)c1ccc(NC(=O)CN2CCN(CC(=O)Nc3ccc(F)cc3)CC2)cc1 | inactive: -5.18% | 
61 | CCc1cccc(C)c1NC(=S)NCc1ccc2c(c1)cc(C)n2C |  | inconclusive: 28.2 µM [inhibitor, single point]
62 | CCOC(=O)C1=C(c2ccccc2)NC(SCC)=C(C#N)C1c1cccnc1 (stereo not drawn) | inactive: -18.7% | 
63 | CCN(CC)c1ccc(C(=C2C=CC(=[N+](CC)CC)C=C2)c2ccc(S(=O)(=O)O)cc2S(=O)(=O)[O-])cc1 |  | inconclusive: 10 µM [inhibitor, partial curve, poor fit]
